Measured values from PMC4336329 (PLoS ONE, 2015).
Screen size: about 310,000 compounds; about 2,200 (0.71%) showed an effect of 50% or more. The effect is printed as a negative number. This is one part of the list.

Each molecule was assayed against human ether-à-go-go-related gene (hERG) potassium channel (human, UniProt Q12809) (assay: primary screen, population patch clamp on CHO cells stably expressing hERG).
human ether-à-go-go-related gene (hERG) potassium channel, sequence (Q12809 whole entry, looked up): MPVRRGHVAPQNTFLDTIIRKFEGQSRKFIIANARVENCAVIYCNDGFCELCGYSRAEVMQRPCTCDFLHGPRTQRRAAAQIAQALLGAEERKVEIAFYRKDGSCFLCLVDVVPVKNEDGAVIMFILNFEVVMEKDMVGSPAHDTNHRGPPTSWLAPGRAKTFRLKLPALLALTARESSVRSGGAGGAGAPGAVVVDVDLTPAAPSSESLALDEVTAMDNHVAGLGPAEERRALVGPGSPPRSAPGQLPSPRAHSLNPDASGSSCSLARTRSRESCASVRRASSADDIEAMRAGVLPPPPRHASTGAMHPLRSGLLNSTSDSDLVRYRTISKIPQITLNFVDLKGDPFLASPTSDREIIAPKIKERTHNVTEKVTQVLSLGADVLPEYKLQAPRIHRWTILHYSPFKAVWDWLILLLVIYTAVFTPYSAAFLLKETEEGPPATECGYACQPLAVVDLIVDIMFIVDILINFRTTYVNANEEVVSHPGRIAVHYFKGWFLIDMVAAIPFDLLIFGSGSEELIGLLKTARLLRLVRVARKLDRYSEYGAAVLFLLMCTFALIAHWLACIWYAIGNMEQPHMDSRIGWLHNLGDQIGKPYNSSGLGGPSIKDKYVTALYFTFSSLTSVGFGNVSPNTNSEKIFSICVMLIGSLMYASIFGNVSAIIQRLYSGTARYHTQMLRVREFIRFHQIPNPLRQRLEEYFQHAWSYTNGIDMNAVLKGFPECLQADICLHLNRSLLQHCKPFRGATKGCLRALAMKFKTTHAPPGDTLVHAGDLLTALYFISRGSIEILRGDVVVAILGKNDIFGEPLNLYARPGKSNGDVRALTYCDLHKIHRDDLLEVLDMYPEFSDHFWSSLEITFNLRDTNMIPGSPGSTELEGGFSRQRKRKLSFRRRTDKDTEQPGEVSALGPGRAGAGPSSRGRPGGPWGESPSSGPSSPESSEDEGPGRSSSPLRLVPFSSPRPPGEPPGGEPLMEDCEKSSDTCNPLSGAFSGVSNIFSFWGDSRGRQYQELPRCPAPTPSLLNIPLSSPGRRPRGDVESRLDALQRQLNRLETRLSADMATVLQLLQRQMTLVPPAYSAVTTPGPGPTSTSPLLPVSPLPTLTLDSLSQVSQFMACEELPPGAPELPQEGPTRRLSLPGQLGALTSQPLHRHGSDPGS

**Q.** `CNC(=O)c1csc(Cc2c(Cl)sc3ccc(Cl)cc23)n1` was tested. Which “hERG current change (%, negative = inhibition) at 1uM” value did it give?
**A.** 3.65%

**Q.** `Cn1cc(C(=O)NCc2cccnc2)c(=O)c2cc(S(=O)(=O)N3CCCCCC3)ccc21` was tested. Which “hERG current change (%, negative = inhibition) at 1uM” value did it give?
**A.** 13.9%

**Q.** How did the “hERG current change (%, negative = inhibition) at 1uM” value turn out when `CCOc1ccccc1-c1nn2c(Cc3ccccc3)nnc2s1` was run?
**A.** 11.6%

**Q.** How did the “hERG current change (%, negative = inhibition) at 1uM” value turn out when `CCc1noc(C)c1C(=O)N1CCOCC1` was run?
**A.** 12.1%

**Q.** With `Cc1cc(C)nc(/N=C(\N)Nc2ccc(OCc3ccccc3)cc2)n1` as the molecule, how does the “hERG current change (%, negative = inhibition) at 1uM” value read?
**A.** -28.8%

**Q.** With `CCOc1ccc(-c2c(C(=O)N/N=C/c3c[nH]c4ccccc34)nnn2-c2nonc2N)cc1` as the molecule, how does the “hERG current change (%, negative = inhibition) at 1uM” value read?
**A.** 17.5%

**Q.** `O=C(Cc1c[nH]c2ccccc12)N/N=C/c1ccccc1O` was tested. Which “hERG current change (%, negative = inhibition) at 1uM” value did it give?
**A.** 6.75%

**Q.** For `CN(Cc1ccccc1)C(=O)CN1C(=O)NC(C)(c2ccc(Cl)cc2)C1=O` (stereo not drawn), which “hERG current change (%, negative = inhibition) at 1uM” value is on record?
**A.** 12.8%

**Q.** How did the “hERG current change (%, negative = inhibition) at 1uM” value turn out when `CCOC(=O)c1sc(NC(=O)CSc2nc(C)cc(C)n2)c(C#N)c1C` was run?
**A.** 8.65%

**Q.** How did the “hERG current change (%, negative = inhibition) at 1uM” value turn out when `CCOC(=O)N1CCN(C2=C(NS(=O)(=O)c3ccccc3)C(=O)c3ccccc3C2=O)CC1` was run?
**A.** 0.237%

**Q.** Which “hERG current change (%, negative = inhibition) at 1uM” value does the source give for `Cc1cccc(C)c1N(CC(=O)N1CCN(C)CC1)S(C)(=O)=O` here?
**A.** 22.4%

**Q.** `CCOC(=O)C(Cc1ccccc1)c1ccnc2ncnn12` (stereo not drawn) was tested. Which “hERG current change (%, negative = inhibition) at 1uM” value did it give?
**A.** 7.6%

**Q.** With `COc1ccc(CNC(=O)CC(C)S(=O)(=O)c2ccc3c(c2)NC(=O)CO3)cc1` (stereo not drawn) as the molecule, how does the “hERG current change (%, negative = inhibition) at 1uM” value read?
**A.** 16.1%

**Q.** `O=C(Nc1ccon1)c1cc2ccccc2oc1=O` was tested. Which “hERG current change (%, negative = inhibition) at 1uM” value did it give?
**A.** 1.51%

**Q.** With `CCOC(=O)N1CCN(C(=O)COC(=O)C2CCN(S(=O)(=O)c3ccc(C)c(C)c3)CC2)CC1` as the molecule, how does the “hERG current change (%, negative = inhibition) at 1uM” value read?
**A.** -13.3%

**Q.** With `CCCc1cc(C(=O)NNC(=S)NCc2ccccc2)cs1` as the molecule, how does the “hERG current change (%, negative = inhibition) at 1uM” value read?
**A.** 5.72%

**Q.** With `Cc1cccc(-c2nn(-c3ccccc3)cc2C(=O)N2CCN(C3CCS(=O)(=O)C3)CC2)c1` (stereo not drawn) as the molecule, how does the “hERG current change (%, negative = inhibition) at 1uM” value read?
**A.** -8.92%

**Q.** `COc1cc(CN2CCC(CO)(Cc3cccc(C(F)(F)F)c3)CC2)ccc1F` was tested. Which “hERG current change (%, negative = inhibition) at 1uM” value did it give?
**A.** -15.9%

**Q.** With `COc1ccc(NC(=O)OC(C)C)cc1` as the molecule, how does the “hERG current change (%, negative = inhibition) at 1uM” value read?
**A.** 4.78%

**Q.** Which “hERG current change (%, negative = inhibition) at 1uM” value does the source give for `Cc1cc(C)nc(SCC(=O)Nc2sc3c(c2C#N)CCC(C)C3)n1` (stereo not drawn) here?
**A.** 12.5%

**Q.** With `COc1ccccc1NC(=O)Nc1nc(CC(=O)N2CCN(c3ccccc3OC)CC2)cs1` as the molecule, how does the “hERG current change (%, negative = inhibition) at 1uM” value read?
**A.** 11.7%

**Q.** Which “hERG current change (%, negative = inhibition) at 1uM” value does the source give for `O=C(O)/C=C\C(=O)O.OCCN1CCN(CC/C=C2/c3ccccc3CSc3ccccc32)CC1` here?
**A.** 10.2%

**Q.** With `CCOC(=O)C1=C(C)NC(=S)NC1c1ccc(-c2ccc(Cl)cc2)o1` (stereo not drawn) as the molecule, how does the “hERG current change (%, negative = inhibition) at 1uM” value read?
**A.** 14.5%

**Q.** `CCC(C(=O)NC1CCCC1)N(C(=O)c1snc(C(N)=O)c1N)c1ccc2c(c1)OCCO2` (stereo not drawn) was tested. Which “hERG current change (%, negative = inhibition) at 1uM” value did it give?
**A.** 8.22%

**Q.** How did the “hERG current change (%, negative = inhibition) at 1uM” value turn out when `Cc1noc(N)c1C1(O)C(=O)N(C(C)C)c2ccccc21` (stereo not drawn) was run?
**A.** 9.37%

**Q.** For `O=C(Nc1ccccn1)c1cc(-n2cnnc2)ccc1Cl`, which “hERG current change (%, negative = inhibition) at 1uM” value is on record?
**A.** -7.07%

**Q.** Which “hERG current change (%, negative = inhibition) at 1uM” value does the source give for `Cc1cc(C(=O)N2CCCC(C(=O)c3cc(F)ccc3F)C2)c(C)o1` (stereo not drawn) here?
**A.** 11.8%

**Q.** How did the “hERG current change (%, negative = inhibition) at 1uM” value turn out when `Cc1cccc(N(Cc2ccccc2)C(=O)Cc2ccc(S(=O)(=O)N3CCOCC3)s2)c1` was run?
**A.** 11%

**Q.** For `Cc1ccc(NS(=O)(=O)c2cc([N+](=O)[O-])ccc2N/N=C/c2sc(N3CCOCC3)nc2-c2ccccc2)c(C)c1`, which “hERG current change (%, negative = inhibition) at 1uM” value is on record?
**A.** 4.56%

**Q.** Which “hERG current change (%, negative = inhibition) at 1uM” value does the source give for `Oc1c(Br)cc(Br)cc1CNn1cnnc1` here?
**A.** 19.2%

**Q.** With `CCCN(C(=O)c1cn(C)c(=O)c2ccccc12)c1ccccc1C` as the molecule, how does the “hERG current change (%, negative = inhibition) at 1uM” value read?
**A.** 8.74%

**Q.** With `Cc1cc2nc(-c3ccc(=O)[nH]c3)n(C)c2cc1C` as the molecule, how does the “hERG current change (%, negative = inhibition) at 1uM” value read?
**A.** 11%

**Q.** For `CC(C)(C)C(=O)NC(=S)Nc1ccc(S(=O)(=O)Nc2nccs2)cc1`, which “hERG current change (%, negative = inhibition) at 1uM” value is on record?
**A.** 19%

**Q.** `COC(=O)C1=C(c2cccc(C#N)c2)C[C@@H]2CC[C@H]1N2C(=O)NCCOc1ccc(OC)cc1` was tested. Which “hERG current change (%, negative = inhibition) at 1uM” value did it give?
**A.** -4.73%

**Q.** `CS(=O)(=O)N(CC(=O)N1CCCCC1)Cc1ccccc1` was tested. Which “hERG current change (%, negative = inhibition) at 1uM” value did it give?
**A.** 3.04%

**Q.** With `Cc1cc2nc(C)n(CCCNC(=O)Nc3cccc4ccccc34)c2cc1C` as the molecule, how does the “hERG current change (%, negative = inhibition) at 1uM” value read?
**A.** 12.6%

**Q.** `CCCn1nc(C(=O)NNC(=O)CCOc2ccccc2OCC)c2ccccc2c1=O` was tested. Which “hERG current change (%, negative = inhibition) at 1uM” value did it give?
**A.** 6.61%

**Q.** For `CC(=O)NCCC1CCN(C(=O)c2cc(COc3ccc(C)nc3)on2)CC1`, which “hERG current change (%, negative = inhibition) at 1uM” value is on record?
**A.** 25.2%

**Q.** For `CCCCOc1ccc(-c2nc(=S)[nH][nH]2)cc1`, which “hERG current change (%, negative = inhibition) at 1uM” value is on record?
**A.** 7.3%

**Q.** How did the “hERG current change (%, negative = inhibition) at 1uM” value turn out when `Cc1ccc(CNC(=O)C(=O)NCCC2CCCCN2S(=O)(=O)c2cccs2)cc1` (stereo not drawn) was run?
**A.** 6.62%

**Q.** Which “hERG current change (%, negative = inhibition) at 1uM” value does the source give for `Cc1ccc(S(=O)(=O)NCCC(C)C)cc1[N+](=O)[O-]` here?
**A.** -1.84%

**Q.** Which “hERG current change (%, negative = inhibition) at 1uM” value does the source give for `NC(=O)Cc1ccc(C(=O)c2ccc(Cl)cc2)s1` here?
**A.** 13.5%
